Whole data set: some 16,000 sequences, median “Z-score” near -0.37, cut for the highest 2% near 3.2. The list shows a part of the results.
The sequences below were run on RBM10 RRM1-ZnF (GST-tagged construct) (assay: RNAcompete 7-mer binding Z-score; higher = stronger binding preference).
Description: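 RNAcompete: 20 pmol GST-tagged RBM10 RNA-binding constructs were incubated with a designed RNA pool of about 241,000 sequences up to 41 nt (1.5 nmol) on glutathione beads for 30 min at 4 °C and washed. Bound RNAs were identified by microarray hybridisation. Each RNA 7-mer is scored by a one-sided Z-score of its enrichment, computed over probes that contain the 7-mer within longer pool sequences.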

Sequence | RNAcompete 7-mer binding Z-score
CAGCAGA | 0.326
GAUAAUA | 0.166
UGCCCGA | -0.431
AGUCUCA | -0.668
UGCGCAG | 0.128
AAAUAGC | -0.279
GACGAGU | 0.365
CGGCCUA | -0.772
CAGAGAA | 0.0658
GACGAUU | -0.23
AUGCGGC | -0.0187
UGAUGGC | 0.673
UAUAUCG | -0.363
CAUCCUC | -0.746
GGUCAAU | 0.293
AGAAGUA | 0.173
UUGAACA | -0.428
AACGGUG | 1.56
CAUGGCC | -0.548
CAAACGA | -0.347
GUACGUG | 0.384
GGUAUCC | 0.00729
AGGCGCU | -0.116
ACUAGCC | -0.704
CGCCUGG | -0.253

Sequence | RNAcompete 7-mer binding Z-score
AUAGAAG | 0.605
GGCCGCC | -0.532
AGACAUG | 0.17
UGUGUCA | -0.503
UCCGCUU | -0.86
CUAUAUC | -0.789
GCAGCGA | 0.381
UUAUUGU | -0.457
UGGCCAG | 0.03
GCCCGUC | -0.552
GGUAACA | 1.02
CUCUGUC | -0.834
UGCCUAG | -0.35
CGAUCCC | -0.698
CUCGACA | -0.714
CAAUUCC | -0.824
AGCGGGG | 4.14
UAGUCUG | -0.474
AUAAGUG | 0.465
UUAACAA | -0.402
AUUCAGC | -0.681
CUCAAAC | -0.756
AGCUGUA | -0.422
CAAGUCA | -0.578
ACAUGCC | -0.87

Sequence | RNAcompete 7-mer binding Z-score
AUAGUCG | -0.145
AUAUGUA | -0.288
GAGUCGA | 0.319
UGCCGAA | -0.321
CAGUGAG | 0.706
AUCCUUC | -0.795
AGGGAAA | 4.7
GCCACCU | -0.6
GGAAUCG | 0.992
GAUCUUG | -0.565
CAGUGCU | -0.357
GCCUAGG | 0.128
GCAAGGC | 0.352
CAACUAG | -0.392
AGGACGU | 0.504
AGCAUAU | -0.477
UUCCUCG | -0.681
AGCUGGA | 0.8
AUAUUUG | -0.405
AGAUGAU | 0.287
GCCAAAG | -0.386
AAUCGAC | -0.425
AACGUAA | -0.425
CGGCUAC | -0.454
AAUGCUG | -0.0479

Sequence | RNAcompete 7-mer binding Z-score
UUUUUUG | -0.402
GCCCUCA | -0.789
UCGGCUC | -0.694
GGCACCU | -0.178
GCCGUAG | -0.162
GGUGUGC | 2.3
UUGUUUA | -0.629
CGGUUAA | 0.495
CGGUAUA | 0.287
ACCCUUU | -1.02
UACUCUC | -0.711
GACUAUC | -0.665
CCGCGAC | -0.74
CUCUCCC | -0.558
AGAAGGA | 3.99
UGACAAA | -0.545
GGCGGAC | 1.19
AUGCCAU | -0.685
GUGAGCU | 0.517
GAUUCGA | -0.269
CGAUGUU | -0.425
CUCAAUC | -0.769
GGGUACC | 1.18
ACCCAAC | -0.6
AUCAGCC | -0.805

Sequence | RNAcompete 7-mer binding Z-score
GGGCAGG | 3.39
UAACGCG | -0.253
CAGCUAU | -0.668
CUCGCCG | -0.688
GAGUACC | -0.139
GGGCGGU | 2.28
UCCGAGG | 0.105
CCUUCGA | -0.922
AGGGAUA | 4.2
CGUGGAA | 1.19
GCUUUAC | -0.694
CCGCAUU | -0.766
AGGUCUG | -0.113
CAAAGUU | -0.457
ACGUCAU | -0.513
UGUUACG | -0.353
UGCUGUC | -0.558
UAUACUU | -0.633
CCCAUGC | -0.743
AUGGCGG | 2.03
CUGUCGC | -0.617
UUCGUGC | -0.48
GGAUCAC | 0.17
GCUGUCC | -0.474
UUAACUG | -0.477

Sequence | RNAcompete 7-mer binding Z-score
CUACCCC | -0.467
GAACCUG | -0.617
CGUGUUC | -0.662
CCCCCUG | -0.376
GUUGGGC | 2.61
GAAGCUC | -0.373
GAACUAU | -0.5
GACAGUA | -0.175
CAUCUCG | -0.62
GAAAUGU | 0.469
AUUUCAA | -0.636
UGGCUGU | 0.128
GACCUUG | -0.743
CUAAGCC | -0.802
CUCCUAG | -0.581
UCUAGUU | -0.665
CCCUUUG | -0.886
AUAAUCC | -0.821
GGGAAAC | 2.34
UAAUCGG | 0.267
AGCUAUC | -0.665
UAUAGCG | -0.0285
AUGAGCA | 0.131
GUCGCAA | -0.441
CUUUCAA | -0.925

Sequence | RNAcompete 7-mer binding Z-score
UGUCGAC | -0.578
GCAAUAG | 0.361
CGAUCUA | -0.737
UUGUGCA | -0.379
CUAUUAG | -0.467
CUAACUA | -0.571
CGUCAUG | -0.321
CGUUCGC | -0.587
UUUUUGC | -0.847
AUCUUCA | -0.746
UGUGGAC | 0.794
CUAAUGC | -0.782
AGUUGCU | -0.334
GUCUACG | -0.353
GUCGACU | -0.47
UAAACAA | -0.392
UGGUGCA | 1.25
UCUCCCC | -0.587
UACAAGC | -0.461
UUAACGC | -0.633
ACAUUAC | -0.587
UUGCUAA | -0.62
CUGGCCG | -0.324
AUAUUGC | -0.578
GGGUUGG | 4.64

Sequence | RNAcompete 7-mer binding Z-score
CGAGUAC | -0.288
AGGCCCG | -0.704
CAUGGCG | 0.205
UUUGAGU | -0.191
CAUCAAC | -0.613
AGUCGGU | 0.842
AAUUAGC | -0.425
ACAACAA | -0.347
GUCGAGC | 0.166
GGCAUGA | 1.01
GGAAUGC | 1.44
AACAAUU | -0.568
UGACGAG | 0.339
UCCCCCG | -0.282
GGACCGA | -0.0544
AAAGCCU | -0.85
GAAUACC | -0.477
GUAGCCU | -0.461
CCGAAUA | -0.642
UCCGAAG | -0.37
UUAUUUG | -0.655
GAUUUCC | -0.782
UUUUUCG | -0.711
UGGGUAC | 2.69
GCUGGAA | 0.771

Sequence | RNAcompete 7-mer binding Z-score
GCAGACU | -0.262
UUCGGGG | 1.72
AAGCUUA | -0.558
UCUUGGG | 0.501
AUGCUAA | -0.5
CAUACUU | -0.763
GAGUUAA | 0.29
AGAAUGA | 0.147
GCGCUAC | -0.103
ACGACGA | -0.37
CCCCUCC | -0.259
GGGAUGC | 3.06
GAACUUC | -0.782
CACUUGU | -0.694
AAUAGCC | -0.724
AAUCCUC | -0.678
CCAGUGG | 0.511
UGUGCAG | 0.319
CUACAUG | -0.591
CAGGUUA | 1.07
GUCUCGU | -0.509
UUGCAGU | -0.542
GAGAUAA | 0.508
GCCCCGA | -0.412
CGAUAGC | -0.435

Sequence | RNAcompete 7-mer binding Z-score
AUUGUUA | -0.188
CUACGUA | -0.513
UUAAUGG | 0.897
GGAACGU | 1.22
UGCUAUG | -0.168
AUAUAGG | 1.32
GAAUUGC | -0.0187
AUGCAGU | -0.00246
CAAAUGU | -0.295
GAAGUGU | 1.08
UCACAAA | -0.587
AAGACGA | 0.439
AGCGCGG | 1.1
CGACCCC | -0.496
AGCCUUU | -1
GUACCCU | -0.597
UUUCACC | -0.818
AUUUAAG | -0.298
AUGGCGA | 0.836
UCAGGGU | 1.32
GUGAGGU | 2.9
AUCGGCG | 0.134
CAGUCAC | -0.373
CUGGACC | -0.409
CUGGGGG | 2.28

Sequence | RNAcompete 7-mer binding Z-score
GCCGUUA | -0.607
UGCCUAC | -0.571
UUCUAUA | -0.61
AACGUUU | -0.704
AACUGGA | 0.667
CAUGCCU | -0.883
GAAGGUG | 4.59
ACGUAGU | -0.0285
CUCUAAA | -0.811
CCACCUU | -0.766
GGGCCGU | 0.53
CCUGGGA | 0.309
ACAUUGA | -0.214
GGUUCGU | 0.303
GGCGUCU | -0.0479
CAAAGCU | -0.594
GCGUUUU | -0.529
UCCAGCC | -0.704
UAAAAGC | -0.574
GCUCGCG | -0.412
AUGUAGU | 0.374
AAGCACA | -0.542
UAGGGCC | 0.631
GACAGAA | 0.296
GAACGUG | 0.699

Sequence | RNAcompete 7-mer binding Z-score
GGCUCGU | -0.0934
AGAUUCG | -0.227
CCCCAUA | -0.587
AAAAAAC | -0.457
CUUCGCA | -0.698
CAGAGGC | 0.313
CACUCUC | -0.6
CUCACAU | -0.805
CCACGGA | 0.264
CGACAAG | 0.144
CGUGUAU | -0.0999
GUUCCAC | -0.49
AGAGUCG | 0.29
AAUGUGG | 2.19
AGAACGC | -0.685
CAGGAUU | 0.641
GCAGGGU | 3.43
CAUCGAU | -0.513
GUGUCGC | 0.238
GUUGGCA | 1.01
ACACACU | -0.688
AUCCUGC | -0.792
GUGUGCU | 0.267
AAGACUG | 0.0333
AUUAGGG | 2.33

Sequence | RNAcompete 7-mer binding Z-score
CAACCAG | -0.168
ACAGCCC | -0.529
CAGGGCA | 2.06
CCCAUAG | -0.681
ACUGUUC | -0.821
CGUGCGU | -0.103
ACAAGGG | 2.96
CCCCUUU | -0.733
UGUAGUC | -0.292
GGACUGC | 0.361
UUUAUUA | -0.581
GCCCAUA | -0.805
ACUAGAA | 0.0203
UCCCGGG | 0.166
CCGGCCG | -0.555
GUAAACU | -0.123
GAUUACA | 0.056
CGCCCAU | -0.737
AAAGAUU | -0.288
AUAUCAA | -0.464
UAUGACC | -0.604
CUCUUGC | -0.831
CGUCGAC | -0.454
GCUGGGG | 2.64
CUCGCGC | -0.668

Sequence | RNAcompete 7-mer binding Z-score
GCCAGCC | -0.467
GUUCGAA | -0.175
GUCAUGA | 0.03
GAAUUAC | -0.34
UCUUUAU | -0.759
UUUAAGU | -0.578
ACCAAAA | -0.613
UUUACGA | -0.659
GGGCUGG | 2.44
GCGAGCU | 0.215
UUGGCGU | 0.251
GUCUACC | -0.649
UUCUGUC | -0.87
UUCGUUA | -0.873
AAUGAUC | -0.506
GGCGUCC | -0.158
GUGAUUU | -0.272
ACCCUUA | -0.954
AUCGCCU | -0.919
CUAAGCA | -0.578
GCUUAGA | -0.376
GGCUGUU | -0.0544
GUAUGUG | 1.07
AGAAUAA | -0.305
AGCCGCC | -0.435

Sequence | RNAcompete 7-mer binding Z-score
UAAUAGA | -0.119
GAAACGA | 0.121
AAUCCGU | -0.815
UUUAAUU | -0.568
CUUCCGU | -0.733
AGGAACA | 0.569
UUAAGUA | -0.331
CGAGCCG | -0.331
UACGGUU | 0.404
AGGCGCG | 0.322
CUUGAAU | -0.655
CUCGUGA | -0.581
ACAUAGC | -0.301
ACCCCAA | -0.418
UCCGAUU | -0.75
GAGAUAU | 0.465
UGUGGGC | 2.06

— the supplement of paper PMC5499739
